We go through 153 variants from a collection of fitness landscapes (doi:10.1126/science.1257360).

The chains are these.
B1: PhoQ; a variant is named by its letters at X, in order, P23837 (parent)
chain: MKKLLRLFFPLSLRVRFLLATAAVVLVLSLAYGMVALIGYSVSFDKTTFRLLRGESNLFYTLAKWENNKLHVELPENIDKQSPTMTLIYDENGQLLWAQRDVPWLMKMIQPDWLKSNGFHEIEADVNDTSLLLSGDHSIQQQLQEVREDDDDAEMTHSVAVNVYPATSRMPKLTIVVVDTIPVELKSSYMVWSWFIYVLSANLLLVIPLLWVAAWWSLRPIEALAKEVRELEEHNRELLNPATTRELTSLVRNLNRLLKSERERYDKYRTTLTDLTHSLKTPLXXLQXXLRSLRSEKMSVSDAEPVMLEQISRISQQIGYYLHRASMRGGTLLSRELHPVAPLLDNLTSALNKVYQRKGVNISLDISPEISFVGEQNDFVEVMGNVLDNACKYCLEFVEISARQTDEHLYIVVEDDGPGIPLSKREVIFDRGQRVDTLRPGQGVGLAVAREITEQYEGKIVAGESMLGGARMEVIFGRQHSAPKDE

The list shows a part of the results.

The assay covers variants of B1. As to the kind of experiment: enrichment ratio after two sorts for PhoP signalling (ratio (wild type AVST 3.29)); higher = more functional. Particulars: with PhoP (E. coli).
With TGTH, the enrichment ratio is 2.57.
The same measure for EEVQ: at most 0.25.
The same measure for DTGD: at most 0.25; for PVNI: at most 0.25.
With HNKY, the enrichment ratio was at most 0.25.
Turning to IFTY, the enrichment ratio is at most 0.25.
Next, FHDI: at most 0.25.
Next, QMLF: at most 0.25; PYMP: at most 0.25; CDCR: at most 0.25.
For the variant MTNR, the enrichment ratio was at most 0.25.
Turning to SIET, the enrichment ratio amounted to 4.74.
Next, FNVD: at most 0.25.
The same measure for FHIY: at most 0.25.
The same measure for NFYR: at most 0.25; for YEGG: at most 0.25; for KIKH: at most 0.25.
Turning to SSPP, the enrichment ratio was at most 0.25.
Take RRVM: the enrichment ratio is at most 0.25.
The same measure for SKHF: at most 0.25; for HYTW: at most 0.25.
On to PPGA, for which the enrichment ratio is at most 0.25.
The same measure for SCSM: 14.5.
Next, MYAL: at most 0.25.
Next, AYPH: at most 0.25.
For SVIG, the enrichment ratio came out at 8.65.
The same measure for WKYE: at most 0.25; for SSLI: 18.9.
Next, VPLI: 0.303; KQNK: at most 0.25.
Next, HDAK: at most 0.25; NDMD: at most 0.25; GLCE: 2.44.
In the case of GHDN, the enrichment ratio is at most 0.25.
The same measure for HKIY: at most 0.25; for EMHA: at most 0.25; for TLAV: 11.9.
On to WNYP, for which the enrichment ratio is at most 0.25.
Next, VVWI: at most 0.25; ADTM: at most 0.25.
Next, VYGF: at most 0.25; ALYR: at most 0.25; HRNY: at most 0.25.
The same measure for VASL: 1.74; for DGQT: at most 0.25; for INMM: 7.98.
Regarding LQCY, the enrichment ratio is at most 0.25.
The same measure for KMNV: at most 0.25; for VSFA: at most 0.25; for DAFT: at most 0.25.
The same measure for EKNR: at most 0.25; for WPQL: at most 0.25.
The same measure for TNND: at most 0.25; for HWCQ: at most 0.25.
For INVH, the enrichment ratio is at most 0.25.
Next, QRQL: at most 0.25.
The same measure for SYVY: at most 0.25; for RSFC: at most 0.25; for GTSK: at most 0.25.
The same measure for HGWD: at most 0.25; for TYFS: at most 0.25; for KTDV: at most 0.25.
In the case of WHPH, the enrichment ratio was at most 0.25.
Next, YQWT: at most 0.25.
PNIF: the enrichment ratio was at most 0.25.
The same measure for HGQF: at most 0.25; for NWVL: at most 0.25; for TRCI: 5.39.
Next, HLPK: at most 0.25; YDYT: at most 0.25; DVVV: at most 0.25.
Next, EHDF: at most 0.25; PCFI: at most 0.25; WHSQ: at most 0.25.
For IACY, the enrichment ratio was at most 0.25.
For QLTY, the enrichment ratio was at most 0.25.
Next, VFSF: at most 0.25; GNFV: at most 0.25.
For ATSL, the enrichment ratio turned out to be 5.96.
Turning to TVVW, the enrichment ratio is at most 0.25.
The same measure for NWYM: at most 0.25.
Next, LAIY: at most 0.25.
The same measure for ECLE: at most 0.25; for FDPT: at most 0.25.
On to AVMA, for which the enrichment ratio was determined as 5.91.
Next, CLMY: at most 0.25; TCTS: 17.5; VVKD: at most 0.25.
Next, KFLC: at most 0.25; SMYN: at most 0.25.
For the variant YTTR, the enrichment ratio is 0.294.
On to IGDP, for which the enrichment ratio is at most 0.25.
The same measure for KEGY: at most 0.25; for GQIA: at most 0.25; for DEAM: at most 0.25.
The same measure for VKHK: at most 0.25.
Next, ETCD: at most 0.25; QEKS: at most 0.25.
With HNYW, the enrichment ratio was at most 0.25.
The same measure for DKYQ: at most 0.25; for VQCQ: at most 0.25; for EYGQ: at most 0.25.
The same measure for EYGK: at most 0.25.
Next, QKLF: at most 0.25; NMTT: at most 0.25.
For WGAM, the enrichment ratio was at most 0.25.
Next, IKYK: at most 0.25.
With KCSV, the enrichment ratio is at most 0.25.
The same measure for DLFA: at most 0.25; for YFYW: at most 0.25; for DRPM: at most 0.25.
Next, QILL: at most 0.25; FMHG: at most 0.25; SQEE: at most 0.25.
The same measure for AGCC: 16.1; for IPHP: at most 0.25.
As to TLAY, the enrichment ratio is at most 0.25.
Consider KCAG, for which the enrichment ratio was at most 0.25.
The same measure for QLVF: at most 0.25; for GIQF: at most 0.25.
The same measure for HPCR: at most 0.25.
Next, WAPK: at most 0.25; MEAW: at most 0.25; YDWD: at most 0.25.
For the variant GPTD, the enrichment ratio was at most 0.25.
Next, TAEK: at most 0.25; TKSP: at most 0.25.
Take LRAV: the enrichment ratio was at most 0.25.
The same measure for LPQP: at most 0.25; for IPIA: at most 0.25.
Next, FDHA: at most 0.25.
Next, VSWG: at most 0.25; NIPK: at most 0.25.
With YVSG, the enrichment ratio turned out to be 0.371.
Next, HLSD: at most 0.25; HLPD: at most 0.25; NWCI: at most 0.25.
The same measure for QVYK: 9.39; for SWPL: at most 0.25.
SQQH: the enrichment ratio is at most 0.25.
Next, GEAS: 9.56; TDGT: 3.27; LLQP: at most 0.25.
The same measure for EPSR: at most 0.25; for QPQF: at most 0.25.
The same measure for PDFC: at most 0.25.
On to RLVS, for which the enrichment ratio is at most 0.25.
Next, QPPL: at most 0.25; IGMG: at most 0.25.
Next, QAHQ: at most 0.25; LWPY: at most 0.25; QGYG: 3.64.
The same measure for VFSC: at most 0.25.
